From PubChem BioAssay AID1345082 (National Center for Advancing Translational Sciences (NCATS), 2018)
Out of some 94,000 compounds screened, about 4,000 (4.3%) were called active. This list was built around the results that the source calls inconclusive (neither active nor inactive); the mix of calls is not that of the screen. Calls come from the whole dose curve; as a rule, active = well fitted inhibition curve with a large enough effect; inconclusive = small, poorly fitted or top-dose-only effect; inactive = no such curve, though single readings can be large or run the other way. Potencies of inconclusive entries are doubtful fits and often do not repeat.

Test: Cytotoxic Profiling in NIH 3T3 Cell Line of Diverse Libraries Using Quantitative High-Throughput Screening; note: nearly all actives have a fitted effect of over 55% in size
Conditions: NIH 3T3 viability, CellTiter-Glo ATP luminescence, 48-72 h; series mostly up to 96.7 µM
How it was run: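 Cytotoxicity was measured by CellTiter-Glo ATP luminescence after 48 or 72 h compound exposure at 37 °C. Mouse NIH 3T3 fibroblasts were seeded at 400 cells/well and dosed by 23 nL pin transfer.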
Potency is the fitted concentration of half-maximal effect; tags give direction and shape of the fitted curve.

| Compound | Potency |
| --- | --- |
| CN(CC[C@H]1CN(C(=O)c2ccc(C(F)(F)F)cc2)CC[C@H]1CC(=O)O)c1ccccc1 | active: 35.5 µM |
| CN1CCN(C(=O)c2csc(N3CCN(c4ccc(Cl)cc4)CC3)n2)CC1 | inconclusive: 50.1 µM [inhibitor, partial curve, poor fit] |
| COCc1nc2nccc(-c3ccc4c(c3)CC(C)O4)n2n1 (centres undefined) | inconclusive: 50.1 µM [inhibitor, single point] |
| COc1ccc(Cl)cc1-c1nc(C2CC(=O)N(c3ccc(F)cc3)C2)no1 (centres undefined) | inconclusive: 50.1 µM [inhibitor, partial curve, poor fit] |
| CN1[C@@H](CCC(=O)NCc2ccccc2)CNC(=O)[C@@H]2[C@H]1CCN2Cc1ccc(O)cc1 | inactive |
| Cc1ccc(CN2CCCC3(COc4ccccc4C(=O)N3)C2)cc1 (centres undefined) | inconclusive: 63.1 µM [inhibitor, partial curve, poor fit] |
| O=C(C1CCCC1)N1CCCN(c2ccnc3ccnn23)CC1 | inconclusive: 89.1 µM [inhibitor, partial curve] |
| COc1ccc(C(=O)N2CCC(c3nn(C)c(=O)n3Cc3ccccc3)CC2)cc1F | inactive |
| COc1ccc(F)cc1-c1ccc(CN2CCC(NC(=O)Nc3ccccc3)C2)cc1 (centres undefined) | active: 12.6 µM |
| Cn1cc(CC(=O)N2CCCc3ncc(C(=O)NCc4cccc(F)c4)cc32)c2ccccc21 | inconclusive: 44.7 µM [inhibitor, partial curve, poor fit] |
| OC[C@@H]1CN(Cc2ccoc2)C[C@H]1c1nc(-c2ccncc2)no1 | inactive |
| COCCOC1CCN(C(=O)c2cccc(C)c2)CC1 | inactive |
| CCCS(=O)(=O)N1CCC2(CC1)c1[nH]c3ccccc3c1CCN2C | inconclusive: 39.8 µM [inhibitor, partial curve, poor fit] |
| COc1ccc(F)cc1-c1cccc(C(=O)NCCNC(=O)Nc2ccccc2F)c1 | inconclusive: 20 µM [inhibitor, full curve, poor fit] |
| COc1cccc(CNC(=O)c2c(C)noc2-c2cccc(F)c2)c1 | inconclusive: 50.1 µM [inhibitor, partial curve, poor fit] |
| CCC1=C(C(=O)OC)C(c2ccc(OC)cc2)N2C(CC(=O)NCC3CC3)=CSC2=N1 (centres undefined) | inactive |
| CNC(=O)c1cc(C2CC2)nc2onc(C3CCN(C(=O)Cc4ccccn4)C3)c12 (centres undefined) | inactive |
| O=C(NC1CCN(c2nc3ncccc3o2)CC1)c1ccccc1 | inconclusive: 89.1 µM [inhibitor, partial curve, poor fit] |
| COc1cccc(Nc2ncc(-c3cccc(N(C)C)c3)c3c2OCC3)c1 | inconclusive: 44.7 µM [inhibitor, full curve] |
